Assay results reported in ChEMBL document CHEMBL4888484, “Replenishing the malaria drug discovery pipeline: Screening and hit evaluation of the MMV Hit Generation Library 1 (HGL1) against asexual blood stage Plasmodium falciparum ,using a nano luciferase reporter read-out” (2022).
Out of some 150,000 compounds screened, about 540 (0.36%) showed an effect of 50% or more. The list shows a part of the results.

System: Plasmodium falciparum
Assay: Primary screen in NF54 nanoGlo assay, in single point, at 2uM, 72h; a lower Z score goes with more inhibition
Assay type: functional, Erythrocyte
Details: timepoint 72 hour

Compound | % Inhibition [%] | Z score
COc1ncccc1[C@H]1CCN(C(=O)c2c(Cl)cnn2C)C1 | -13 | 2.39
COc1ccc2[nH]cc([C@H]3C(NC(=O)c4ccc(Cl)cc4)=C(C)Nc4ncnn43)c2c1 | 4 | -0.6
COc1ccc(N2CCN(C(=O)C(=O)Nc3cc(Cl)ccc3OC)CC2)cc1 | -2 | 0.39
CCCN(CC1CC1)C(=O)[C@@H]1CC2(CN(Cc3ccccc3)C2)CN1C | -5 | 0.54
COc1ccc(CN2CCN(CC3CC3)[C@@H]3CS(=O)(=O)C[C@@H]32)cc1O | -13 | 1.76
O=S(=O)(Nc1ccccc1Oc1ccncc1)c1cccnc1 | 20 | -2.51
O=C(NC[C@H]1C[C@@H]1C1CCC1)N1CC(OCC(F)F)C1 | -8 | 0.82
O=C(Nc1ccc(Cl)cc1)c1cnn2c(=O)c3c([nH]c12)CCC3 | -10 | 1.3
CC(C)CC[C@@]1(C2CC2)NC(=O)N(Cc2cnsn2)C1=O | 18 | -2.11
C[C@](C#N)(NC(=O)Cn1nnc(-c2ccco2)n1)C1CC1 | -16 | 1.48
COCc1noc(C[C@H]2CN(C(=O)Cc3sc(C)nc3C)CCO2)n1 | -6 | 1.12
COc1ccc(S(=O)(=O)N(C)Cc2c(C)noc2C)cc1 | -7 | 1.06
COCCOCCOc1ccc(COc2ccccc2CC(N)=O)cc1 | 2 | -0.26
Cc1[nH]c2c(F)cccc2c1CC(=O)N[C@H]1C[C@@H](c2cc(=O)[nH]c(N)n2)C1 | -12 | 1.32
COc1ccc(C(=O)Nc2ccc(-c3c(C4CC4)nn(-c4ccccc4)c3OC(C)=O)cc2)cc1 | 2 | -0.19
O=C(Nc1nc(-c2ccccc2Cl)ns1)N1CCO[C@@H](CO)C1 | -7 | 1.31
Cc1nc(N(C)C)sc1C(=O)Nc1ccc2c(c1)OCCO2 | 1 | -0.23
CCc1nc(-c2cc(S(=O)(=O)NC3CCCCCC3)c(C)s2)cs1 | 9 | -1.03
CS(=O)(=O)N(Cc1ccccc1F)Cc1nnc2n1CCOCC2 | 22 | -2.81
COc1ccc(NC(C)(C)C(=O)N2CCCN(S(=O)(=O)N3CCCC3)CC2)cc1 | 10 | -2.03
CS(=O)(=O)N1CC(CNc2ccnc3c(F)cccc23)C1 | 6 | -0.73

Compound | % Inhibition [%] | Z score
O=C(NCc1ccc(-c2cccc(Cl)c2)o1)[C@H]1CCC[C@H](O)C1 | -17 | 2.97
Cc1c(C(=O)NCC2CCN(c3noc(-c4ccccc4)n3)CC2)cnn1C | -10 | 1.97
O=C(CCc1cc(Br)ccc1OC(F)F)N1CC[C@H](N2C(=O)COC2=O)C1 | 15 | -1.73
CN(CCC[C@H]1CCCO1)C(=O)c1ccc(-c2nccs2)cc1 | -17 | 1.6
COc1ccc(-c2nsc(C(=O)NCc3ccc(C)cc3)c2N)cc1 | -29 | 3.37
CCN(CC)Cc1nnc(C(C)(C)C)o1 | -4 | 0.38
CC1CCN(C(=O)c2ccc3c(c2)NC(=O)[C@@H]2CCCCN32)CC1 | -13 | 2.44
O=C(Cc1ccc(F)cc1)N[C@H]1CC(=O)N(c2ccc3c(c2)OCCO3)C1 | -8 | 1.55
COc1ccc(C(=O)N(CC(=O)Nc2nc(-c3ccc(Cl)cc3)cn2-c2ccc(C)cc2)Cc2ccccc2)cc1 | 5 | -0.62
O=C(c1cccs1)N1CCN(c2ccc(N3CCCC3)nn2)CC1 | -13 | 2.54
COC1(CNC(=O)Nc2nc(C)c(Cc3ccc(C)cc3)s2)CCOCC1 | -18 | 2.36
Cc1cc(C)c(NC(=O)CCC(=O)NCc2csc(N)n2)c(C)c1 | -12 | 1.49
COc1ccccc1-n1nccc1CNC[C@H]1CCC[C@H]1C(=O)O | 1 | -0.21
CC(C)C1CCCCN1C(=O)[C@H]1CCC(=O)N1 (stereo partly specified) | -6 | 1.12
CCCc1nc(-c2c(C)cc(C)nc2NC(=O)c2ccc(F)cc2F)no1 | -16 | 2.16
COc1ccc2[nH]c3c(c2c1)CCN(C)C31CCN(C(=O)c2ccccc2F)CC1 | 6 | -1.24
CC[C@H](NCc1cc(O)c2cccc(F)c2n1)c1cccnc1 | -3 | 0.51
CCNC(=O)Nc1ccc2c(c1)CN(S(=O)(=O)c1cccc(OC)c1)CCO2 | -2 | 0.45
CCc1cc(CNC(=O)N[C@@H](C)CCc2cccn2C)[nH]n1 | -7 | 0.85
Nc1ccn2ncc(C(=O)N[C@@]34COC[C@@H]3C4)c2c1 | 25 | -3.83
C[C@@H]1CN(c2cccc(C(=O)O)n2)CC[C@]1(C)O | -3 | 0.6

Compound | % Inhibition [%] | Z score
CO[C@H]1CCN(c2nnc(-c3n[nH]c4c3CCCC4)n2CC(C)C)C1 | 2 | -0.32
Cc1cc(C)n([C@@H](CNS(=O)(=O)C2CC2)c2ccsc2)n1 | 19 | -2.58
Cc1cccc(C2CC(N[C@@H](C)CN3CCN(C)CC3)C2)c1 (stereo partly specified) | -6 | 0.97
COc1ccc(-n2cc(-c3ccnc(N4CCN(C)C(=O)C4)n3)cn2)cc1 | -4 | 0.83
CN1CCC2(CCN(C3CC(OCc4ccccc4)C3)CC2)C1=O (stereo unspecified) | -10 | 1.51
CN(C)CC1(O)CCC2(CCN(C(=O)c3ccc(F)cc3)CC2)CC1 | -12 | 1.79
O=C(CCc1ccccc1Cl)N[C@H]1CCCCNC1=O | -8 | 0.68
COc1ccccc1Nc1c(C(=O)N2CCC(C)CC2)cnc2nc(C)ccc12 | -6 | 0.88
COCCN(CCOC)c1nc(S(=O)(=O)c2ccc(C)cc2)c(Cl)s1 | -14 | 1.78
CCCC1CCC2(C)c3[nH]c4ccccc4c3CCCN2C1 (stereo unspecified) | 3 | -0.53
CC(=O)Nc1[nH]nc(C2CCCC2)c1-c1ccc2c(c1)OCO2 | -7 | 0.95
CS(=O)(=O)Cc1noc(-c2ccc(N3CCCCC3)cc2)n1 | -14 | 1.69
CCCN(Cc1nccn1CCOC)C1Cc2ccccc2C1 | -1 | 0.29
O=C(Cc1cccc(O)c1)N1CCC2(CCC(=O)N(Cc3ccccc3)C2)CC1 | -6 | 0.98
N=C1N=C2c3ccccc3CN2Cc2ccccc21 | -7 | 0.86
Cn1ccc(C2CCN(C(=O)[C@@H]3CC=CCC3)CC2)n1 | -11 | 1.37
CC(C)N1C[C@@H](C(=O)NCCOCc2ccc(Cl)cc2)CC1=O | -1 | 0.2
CC(C)N(C)C(=O)[C@H](C)S(=O)(=O)CC1CCCCC1 | -15 | 1.99
CC[C@H](O)CNc1nc(CCc2ccccc2)nc2c1cnn2C | -5 | 0.93
O=C(N[C@@H](Cn1cccn1)c1ccccc1)c1cnccn1 | 4 | -0.76
C[C@H](NC(=O)CC(C)(C)C)c1ccncc1 | -1 | 0.2

Compound | % Inhibition [%] | Z score
CCN1CC2(CCN(Cc3nccn3CC)CC2)C[C@@H](c2ccccc2)C1=O | -17 | 1.55
CC(C)(CN1CCCCCC1)NC(=O)C[C@H]1CC1(F)F | -7 | 1.22
Cc1nnsc1C(=O)N1CCN(CC2CC2)[C@@H]2CS(=O)(=O)C[C@@H]21 | -4 | 0.86
CC(NCC1(O)CCCc2ccccc21)c1cnn(C(C)C)c1 (stereo unspecified) | -18 | 2.74
O=C(NCC1(N2CCCC2)CCCC1)c1ccc(O)cc1F | 1 | -0.18
Cc1c(Cl)cccc1NC(=O)[C@@H]1CC(=O)N=C(N2CCCCC2)N1 | -1 | 0.12
O=C(NCc1cccnc1N1CCOCC1)N1CCN(Cc2ccncc2)CC1 | -8 | 1.42
Cc1cc(N2CCOCC2)n2nc(CN3CCC(Cc4ccccc4)CC3)nc2n1 | -6 | 0.82
Cc1nc(C)c(CN(C)[C@@H](C)CC#N)s1 | 5 | -0.68
CCCc1nnc(NC(=O)NC[C@H](C)N2CCOCC2)s1 | 2 | -0.36
O=C1C[C@H](CNC(=O)N2CC3(CCCCC3)C2)CN1 | 10 | -1.96
COc1ccc2nc(-c3ccc(NS(=O)(=O)c4ccc5c(c4)OCCO5)cc3Cl)sc2c1 | -6 | 0.72
Cc1cc(C)c(C)c(C(=O)N[C@H](C(N)=O)[C@@H](C)O)c1C | -14 | 1.68
FC(F)(F)C(Cc1ccncc1)NCC1COC2(CCOCC2)O1 (stereo unspecified) | 5 | -0.51
COc1cc(NC2=NS(=O)(=O)c3ccccc32)c(OC)cc1NC(=O)c1ccccc1 | -9 | 1.43
c1ccc2c(c1)CCCN2Cc1nc(-c2ccsc2)no1 | -3 | 0.52
O=C(c1nc(C2CCCC2)nc2c1OCCO2)N1CCCCC1 | -3 | 0.41
CN(C)c1ccc([C@H](CNC(=O)c2cccs2)N2CCOCC2)cc1 | -10 | 0.95
COc1cc(OC)cc(N2CCC(NC(C3CC3)C3CC3)CC2)c1 | 4 | -0.35
COc1ccc(NC(=O)c2c(O)c3cnn(-c4ccc(Cl)cc4)c3[nH]c2=O)c(OC)c1 | 0 | 0.06
